Reference: PubChem BioAssay AID2675 (National Center for Advancing Translational Sciences (NCATS), 2010)
About 100 (0.036%) of roughly 280,000 compounds were called active. The shares of active, inactive and inconclusive entries below differ from those in the screen. Calls follow the shape of the dose curve; as a rule, active = well fitted inhibition curve with a large enough effect in the signal ratio, with a control signal flat (not every such curve was filed as active); inconclusive = small, poorly fitted or top-dose-only effect, or effect the other way, or a change in a side signal; inactive = no such curve, though single readings can be large or run the other way; the % refers to the signal ratio. Potencies of inconclusive entries are doubtful fits and often do not repeat. A note “side channel” means that the fit belongs to a control or component signal, not to the main read-out.

Biological target: Muscleblind-like protein 1 (Homo sapiens) (UniProt Q9NR56)
Sequence of UniProt Q9NR56 (Q9NR56 whole entry, looked up): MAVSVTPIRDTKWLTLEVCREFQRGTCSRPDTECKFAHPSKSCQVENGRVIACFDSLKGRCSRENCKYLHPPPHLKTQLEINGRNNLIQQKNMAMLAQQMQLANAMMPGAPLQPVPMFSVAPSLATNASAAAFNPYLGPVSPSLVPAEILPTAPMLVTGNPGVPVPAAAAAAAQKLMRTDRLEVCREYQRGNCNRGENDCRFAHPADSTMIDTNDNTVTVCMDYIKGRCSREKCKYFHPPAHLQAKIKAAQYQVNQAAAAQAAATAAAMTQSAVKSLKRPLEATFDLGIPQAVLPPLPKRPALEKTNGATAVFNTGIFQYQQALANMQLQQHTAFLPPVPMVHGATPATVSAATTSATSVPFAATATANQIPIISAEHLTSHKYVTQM
Experiment: qHTS Assay for Inhibitors of MBNL1-poly(CUG) RNA binding
Settings: TR-FRET MBNL1-His/biotin-(CUG)12 binding, 665/545 ratio; series mostly up to 57.5 µM
Method in brief: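 TR-FRET between His-tagged MBNL1 and biotin-(CUG)12 RNA, detected with Tb anti-His antibody (0.055 ng/ul) and streptavidin-XL665 (5 nM), 60 min at room temperature. Compounds titrated 92 nM to 58 uM; 665/545 nm ratio normalized to buffer and complex controls.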
Potency is read from the fitted curve at half-maximal effect; tags tell the direction and shape of the fitted curve or compound fluorescence and quenching.

**Q.** With `O=C(CC(=O)Nc1ccccc1[N+](=O)[O-])Nc1ccccc1[N+](=O)[O-]` as the molecule, how does the Potency read?
**A.** inconclusive: 10 µM [quencher, partial curve]

**Q.** `O=C(c1cn(-c2ccccc2)nc1-c1cccs1)N1CCOCC1` was tested. Which Potency did it give?
**A.** inactive

**Q.** Which Potency does the source give for `CCOc1ccc(C2C=C(c3ccc(C)cc3)Nc3nnnn32)cc1` (configuration not stated) here?
**A.** inactive

**Q.** Which Potency does the source give for `Cn1nc(-c2ccccc2)c(CN2CCN(c3ncccn3)CC2)c1Cl` here?
**A.** inconclusive: 50.1 µM [inhibitor, partial curve, poor fit]

**Q.** Which Potency does the source give for `Cc1ccc([N+](=O)[O-])cc1NC(=O)CN(C(=O)c1ccccc1Cl)C1CCCCC1` here?
**A.** inconclusive: 39.8 µM [quencher, side channel, partial curve, poor fit]

**Q.** `COC(=O)N/N=C(\C)c1ccc2ccccc2c1OC(F)F` was tested. Which Potency did it give?
**A.** inconclusive: 3.16 µM [quencher, side channel, partial curve, poor fit]

**Q.** For `CCn1c(O)c(C=Nc2ccccc2)sc1=S`, which Potency is on record?
**A.** inconclusive: 25.1 µM [quencher, side channel, partial curve]

**Q.** For `CC(C)C1Cc2c(sc3ncnc(NN)c23)CO1` (configuration not stated), which Potency is on record?
**A.** inactive

**Q.** `O=C(OCCCOC(=O)c1ccc(O)cc1)c1ccc(O)cc1` was tested. Which Potency did it give?
**A.** inconclusive: 158 µM [inhibitor, partial curve]

**Q.** How did the Potency turn out when `O=C(Nc1cccc(C(F)(F)F)c1)C12CC3CC(CC(C3)C1)C2` was run?
**A.** inconclusive: 35.5 µM [quencher, side channel, partial curve]

**Q.** `CCOCCCNC(=O)CN1CCN(Cc2ccccc2C)C1=O` was tested. Which Potency did it give?
**A.** inconclusive: 39.8 µM [quencher, side channel, single point]

**Q.** With `CCCCN(CCCC)C(=S)NC(=O)C(C)(C)C` as the molecule, how does the Potency read?
**A.** inactive

**Q.** With `C=CCc1cccc2cc(NC(C)=O)c(=O)oc12` as the molecule, how does the Potency read?
**A.** inconclusive: 14.1 µM [quencher, side channel, partial curve]

**Q.** How did the Potency turn out when `O=[N+]([O-])c1ccc(NC(=S)NCC(c2cccnc2)N2CCOCC2)cc1` (configuration not stated) was run?
**A.** inconclusive: 14.1 µM [quencher, side channel, partial curve, poor fit]

**Q.** `CC(C)N(Cc1ccccc1)C(=O)/C=C/c1ccccc1[N+](=O)[O-]` was tested. Which Potency did it give?
**A.** inconclusive: 17.8 µM [quencher, side channel, partial curve]

**Q.** How did the Potency turn out when `O=C(N/N=C/c1ccc(Br)cc1)c1cc[n+](Cc2ccccc2)cc1` was run?
**A.** inconclusive: 2 µM [activator, single point]

**Q.** `O=C(CN1CCCCC1)Nc1nnc(-c2ccc([N+](=O)[O-])cc2)s1` was tested. Which Potency did it give?
**A.** inconclusive: 7.08 µM [quencher, side channel, partial curve]
